The results in this text go back to PubChem BioAssay (NCI).

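Method: 48-hour compound exposure of cells in 96-well plates, five concentrations, linear interpolation of endpoints. GI50: concentration for 50% inhibition of growth. At the TGI there is no net growth.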

In this experiment the test system is NCI-H322M lung. Description: NCI anticancer screen, dose series, 48 h.
Turning to `COc1ccc(/C=N/NC(=O)c2[nH]c3ccc(Br)cc3c2-c2ccccc2)o1`, the GI50 was 541 nM and the TGI was 43200 nM.
With `CCOC(=O)c1sc(NCC(=O)Nc2cccc([N+](=O)[O-])c2)c(C(=O)OCC)c1C`, the GI50 was 1910 nM and the TGI is 5340 nM.
The like results for `COC(=O)[C@H]1[C@@H](O)[C@@]2(O)c3c(OC)cc(OC)cc3O[C@@]2(c2ccc(OC)cc2)[C@@H]1c1ccccc1` were, in that order, 18.6 nM and 455 nM.
On to `C#CCOc1cccc(-c2nc(N)nc(Nc3ccccc3SSc3ccccc3Nc3nc(N)nc(-c4cccc(OCC#C)c4)n3)n2)c1`, for which the GI50 is 18600 nM and the TGI is greater than 33300 nM.
